We go through 42 sequences from paper PMC7819943, “Rice protein-binding microarrays: a tool to detect cis-acting elements near promoter regions in rice”.

This is one part of the list.

In the assay the target is T1, OsWOX13 (Oryza sativa, UniProt Q5QMM3 1-267).
T1 sequence: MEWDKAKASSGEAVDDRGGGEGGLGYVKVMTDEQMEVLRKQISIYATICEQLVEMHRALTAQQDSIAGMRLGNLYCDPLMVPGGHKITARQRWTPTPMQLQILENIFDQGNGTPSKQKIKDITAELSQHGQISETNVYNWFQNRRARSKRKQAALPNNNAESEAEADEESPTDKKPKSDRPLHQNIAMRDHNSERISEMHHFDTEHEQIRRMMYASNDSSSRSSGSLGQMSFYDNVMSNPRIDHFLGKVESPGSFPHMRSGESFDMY
The assay can be described thus: protein-binding microarray (RPBM); PBS, 2% BSA, 51.3 ng/ul salmon testes DNA, 50 uM zinc acetate, 200 nM TF, 25 C, 1 h; high values mean tight binding. Conditions: protein: recombinant; tags: N-terminal polyhistidine and DsRed monomer fusion (pET32a); label: CyDye5-dUTP incorporated in the synthesized complementary strand; 3' TTTTT single-stranded linker to array surface; dsDNA, one strand shown. A digest of the protocol:
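Polyhistidine-tagged DsRed fusions of transcription factors, joined at the N-terminus, were expressed in E. coli BL21-CodonPlus and isolated on Ni–NTA. They were incubated at 200 nM for 1 h at 25 °C on a custom Agilent array, double-stranded and BSA-blocked, in PBS with 2% BSA, salmon testes DNA and 50 µM zinc acetate. The binding signal is per-feature fluorescence intensity (arbitrary units) read on an Axon 4000B scanner after washing.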
With “TACTTCATCCTCATTATTCAATTTAAACGGTCATTTGCTCCGGAGTCACCTAGTGCAG”, the binding signal is 3410 fluorescence intensity (a.u.).

For “TAAGTTAATAGATATTTAACGTTTATAATAAGATTTGTTTCGGAGTCACCTAGTGCAG”, the binding signal was 9590 fluorescence intensity (a.u.).

Turning to “GATATGTGATAGAAATCATTTGATACCTTGCAAGTATCGCCGGAGTCACCTAGTGCAG”, the binding signal is 18700 fluorescence intensity (a.u.).

On to “TGAAGGATGGGGAGTTGATTGCGGGAGGGATGAGTGTGGACGGAGTCACCTAGTGCAG”, for which the binding signal was 7930 fluorescence intensity (a.u.).

For “ACTTAGATTTATCAGCTAACTTGCTACCAAAAGTTTTGCGCGGAGTCACCTAGTGCAG”, the binding signal is 9030 fluorescence intensity (a.u.).

Turning to “AAACTATTAGATTGGCTATAAATGAATTGGAGCCAATAGTCGGAGTCACCTAGTGCAG”, the binding signal was 27000 fluorescence intensity (a.u.).

As to “ATGATGGATAAGTGGGTGGGCCAAACAGGTGCTCACGTGGCGGAGTCACCTAGTGCAG”, the binding signal is 3680 fluorescence intensity (a.u.).

Take “TTAATCACTGGTAATTATAGATTTATAGGTGATTAATCACCGGAGTCACCTAGTGCAG”: the binding signal is 17900 fluorescence intensity (a.u.).

Regarding “TCATATGATTTATAATTCTTACGACTAACTTGAATCAATTCGGAGTCACCTAGTGCAG”, the binding signal was 10700 fluorescence intensity (a.u.).

As for “CAAAACTGACTTGATCAGTTCAAAATGAAAGTGGAGCGATCGGAGTCACCTAGTGCAG”, the binding signal is 5390 fluorescence intensity (a.u.).

For “TTGTTTTGTATTAGTAGTTAATTACCGCGCTCTCTAATACCGGAGTCACCTAGTGCAG”, the binding signal was 5100 fluorescence intensity (a.u.).

On to “GCTTATCATGATGATTGATGATATCGGAGTAGAATTTATCCGGAGTCACCTAGTGCAG”, for which the binding signal was 24600 fluorescence intensity (a.u.).

For the sequence “AAATAACTGGTGGATATTTGTACGCTGCCCCTGAGGAACTCGGAGTCACCTAGTGCAG”, the binding signal is 3900 fluorescence intensity (a.u.).

For the sequence “TTTCGCAATTAAATCTGGTACTAATAGGTTTCGCCTTCCACGGAGTCACCTAGTGCAG”, the binding signal was 5660 fluorescence intensity (a.u.).

Turning to “ATATAGACGTAATTTAAGACGGTAAAATCCCGCTTATATACGGAGTCACCTAGTGCAG”, the binding signal was 5030 fluorescence intensity (a.u.).

As to “TTCCAAATTAGTCATTTATCAACAAATATATCCTAACACACGGAGTCACCTAGTGCAG”, the binding signal is 11300 fluorescence intensity (a.u.).

As to “ATCCTAATGACGATTAAAAGGAGAGACGTCAGGGAGGCCGCGGAGTCACCTAGTGCAG”, the binding signal is 3650 fluorescence intensity (a.u.).

For “TGAGATTGTAATTGAAGTCGTCGTCGTGTCGTCCTCCGGCCGGAGTCACCTAGTGCAG”, the binding signal was 4720 fluorescence intensity (a.u.).

Regarding “GTTCAGTTCATACACATGCATAATTAGCTTTAATTATTTACGGAGTCACCTAGTGCAG”, the binding signal is 3570 fluorescence intensity (a.u.).

On to “CTGACGATAGTTTACAGGTTAATTTACACTACATATATATCGGAGTCACCTAGTGCAG”, for which the binding signal is 4370 fluorescence intensity (a.u.).

Turning to “CATGACAAACTCTATTAATTTTATGGCTGCATATGAATATCGGAGTCACCTAGTGCAG”, the binding signal is 9260 fluorescence intensity (a.u.).

For “CCACCTCACCACCAATCAACCCAATGCAAATGCCATTTCTCGGAGTCACCTAGTGCAG”, the binding signal is 4330 fluorescence intensity (a.u.).

As to “CGTTCATCATTACCCTTGACACTCTAGAAATTGATATTATCGGAGTCACCTAGTGCAG”, the binding signal was 3490 fluorescence intensity (a.u.).

For “ATAAAATAAAATTAACAATCACAACCATAGTGCTTATCAACGGAGTCACCTAGTGCAG”, the binding signal was 8480 fluorescence intensity (a.u.).

With “TAAATTGTTAAAATTTAGCACACGCTGACTAATCCTCGCTCGGAGTCACCTAGTGCAG”, the binding signal was 14500 fluorescence intensity (a.u.).

Consider “TGTTACAGCATCTAATTAACAGAAACTCGTGTGTCGATATCGGAGTCACCTAGTGCAG”, for which the binding signal was 5150 fluorescence intensity (a.u.).

As for “CCTGATTAATTGTTAATTTTGCTGATGCAGCTGTTGCTTGCGGAGTCACCTAGTGCAG”, the binding signal is 65000 fluorescence intensity (a.u.).

As to “AATTTGATTTGGCCTGTATATTACTATGTGCAGGGTTCCCCGGAGTCACCTAGTGCAG”, the binding signal is 20100 fluorescence intensity (a.u.).

As for “ACTTTTCCGTCACATCGTTTTAATTTCTTTAAACTTTTAACGGAGTCACCTAGTGCAG”, the binding signal was 3400 fluorescence intensity (a.u.).

In the case of “TCTCTCCAATTAAGCCGAAAGTGTCATCCAGCAAATTACCCGGAGTCACCTAGTGCAG”, the binding signal was 5160 fluorescence intensity (a.u.).

Consider “CAATTATCATTAGATTAGATAGGCTGGAAAAGTTGATCTTCGGAGTCACCTAGTGCAG”, for which the binding signal is 10700 fluorescence intensity (a.u.).

“TCACCAAAATAAATTTAATAGAAATTTTGGCATGACCTCCCGGAGTCACCTAGTGCAG”: the binding signal is 12800 fluorescence intensity (a.u.).

For the sequence “TCCTTTTAACTGATTTTCGGTATGTTTAGCATAAACTCGTCGGAGTCACCTAGTGCAG”, the binding signal was 12800 fluorescence intensity (a.u.).

Take “ACTAGACAATTTGAATTTACAACTATATATACTCCCAATCCGGAGTCACCTAGTGCAG”: the binding signal was 3250 fluorescence intensity (a.u.).

For “TGCCCGTGATAGATGCGGCCGACTGGCCGAGCAGCCAGCTCGGAGTCACCTAGTGCAG”, the binding signal was 4750 fluorescence intensity (a.u.).

For “ATAGCCAGTATAATAATCAATTTATATAATAGTTACTTACCGGAGTCACCTAGTGCAG”, the binding signal is 3610 fluorescence intensity (a.u.).

For the sequence “ATGATTAGCAGCTGATTACTGTAGCATTACTGTAGCAAATCGGAGTCACCTAGTGCAG”, the binding signal was 45200 fluorescence intensity (a.u.).

“GCCATTGGATTGGATGATTCTGGACCGTCGGATTTGATGACGGAGTCACCTAGTGCAG”: the binding signal is 4780 fluorescence intensity (a.u.).

Consider “CTGAAATTGAAGTGTGTGGTTGATGCTTCCTACACATGAGCGGAGTCACCTAGTGCAG”, for which the binding signal was 20800 fluorescence intensity (a.u.).

For “TGATGAAGATGATGAGCATGTGATTGAGCTGTCTGATTGCCGGAGTCACCTAGTGCAG”, the binding signal is 33800 fluorescence intensity (a.u.).

Take “AATGGATTGGTAGAGTATTTCACCCTAAGGAACATATAGCCGGAGTCACCTAGTGCAG”: the binding signal was 7960 fluorescence intensity (a.u.).

“AAAACGATCAACGGTTTAGATTAATTTATACTCCGAGTGGCGGAGTCACCTAGTGCAG”: the binding signal is 7100 fluorescence intensity (a.u.).
